{"source": "the supplement of paper PMC8728848", "binders": {"B1": {"name": "Calsepa (Calystegia sepium), P93114 (protein)", "chain": "MAVPMDTISGPWGNNGGNFWSFRPVNKINQIVISYGGGGNNPIALTFSSTKADGSKDTITVGGGGPDSITGTEMVNIGTDEYLTGISGTFGIYLDNNVLRSITFTTNLKAHGPYGQKVGTPFSSANVVGNEIVGFLGRSGYYVDAIGTYNRHK"}}, "assay_in_all_cases": "glycan array binding signal (z-score within array); higher = stronger binding", "details_in_all_cases": "glycan notation: IUPAC condensed, linker removed", "key": {"Gal(b1-4)GlcNAc": {"target": "Gal(b1-4)GlcNAc", "method_in_brief": "(§1)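 From the Consortium for Functional Glycomics database, 3228 arrays were curated, keeping only those whose protein sequence was available. Binding is given as a within-array Z-score averaged across arrays sharing a protein sequence and across linkers. Negative Z-scores can be read as non-binding.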"}, "[1]": {"target": "Gal(b1-4)GlcNAc(a1-6)Gal(b1-4)GlcNAc", "method_in_brief": "as §1"}, "Gal(b1-4)GlcNAc(b1-2)Man": {"target": "Gal(b1-4)GlcNAc(b1-2)Man", "method_in_brief": "as §1"}, "[2]": {"target": "Gal(b1-4)GlcNAc(b1-2)Man(a1-3)Man(b1-4)GlcNAc(b1-4)GlcNAc", "method_in_brief": "as §1"}, "[3]": {"target": "Gal(b1-4)GlcNAc(b1-2)Man(a1-3)[Gal(b1-4)GlcNAc(b1-2)Man(a1-6)]Man(b1-4)GlcNAc(b1-4)GlcNAc", "method_in_brief": "as §1"}, "[4]": {"target": "Gal(b1-4)GlcNAc(b1-2)Man(a1-3)[Gal(b1-4)GlcNAc(b1-2)Man(a1-6)]Man(b1-4)GlcNAc(b1-4)[Fuc(a1-6)]GlcNAc", "method_in_brief": "as §1"}, "[5]": {"target": "Gal(b1-4)GlcNAc(b1-2)Man(a1-3)[Gal(b1-4)GlcNAc(b1-2)][GlcNAc(b1-4)]Man(b1-4)GlcNAc(b1-4)GlcNAc", "method_in_brief": "as §1"}, "[6]": {"target": "Gal(b1-4)GlcNAc(b1-2)Man(a1-3)[GlcNAc(b1-2)Man(a1-6)]Man(b1-4)GlcNAc(b1-4)GlcNAc", "method_in_brief": "as §1"}, "[7]": {"target": "Gal(b1-4)GlcNAc(b1-2)Man(a1-3)[Man(a1-6)]Man(b1-4)GlcNAc(b1-4)GlcNAc", "method_in_brief": "as §1"}, "[8]": {"target": "Gal(b1-4)GlcNAc(b1-2)Man(a1-6)Man(b1-4)GlcNAc(b1-4)GlcNAc", "method_in_brief": "as §1"}, "[9]": {"target": "Gal(b1-4)GlcNAc(b1-2)Man(a1-6)[GlcNAc(b1-2)Man(a1-3)]Man(b1-4)GlcNAc(b1-4)GlcNAc", "method_in_brief": "as §1"}, "[10]": {"target": "Gal(b1-4)GlcNAc(b1-2)Man(a1-6)[Man(a1-3)]Man(b1-4)GlcNAc(b1-4)GlcNAc", "method_in_brief": "as §1"}, "[11]": {"target": "Gal(b1-4)GlcNAc(b1-2)[Gal(b1-4)GlcNAc(b1-4)]Man(a1-3)[Gal(b1-4)GlcNAc(b1-2)Man(a1-6)]Man(b1-4)GlcNAc(b1-4)GlcNAc", "method_in_brief": "as §1"}, "[12]": {"target": "Gal(b1-4)GlcNAc(b1-2)[Gal(b1-4)GlcNAc(b1-4)]Man(a1-3)[Gal(b1-4)GlcNAc(b1-2)[Gal(b1-4)GlcNAc(b1-6)]Man(a1-6)]Man(b1-4)GlcNAc(b1-4)GlcNAc", "method_in_brief": "as §1"}, "[13]": {"target": "Gal(b1-4)GlcNAc(b1-2)[Gal(b1-4)GlcNAc(b1-4)]Man(a1-3)[GlcNAc(b1-4)][Gal(b1-4)GlcNAc(b1-2)Man(a1-6)]Man(b1-4)GlcNAc(b1-4)GlcNAc", "method_in_brief": "as §1"}, "[14]": {"target": "Gal(b1-4)GlcNAc(b1-2)[Gal(b1-4)GlcNAc(b1-4)]Man(a1-3)[GlcNAc(b1-4)][Gal(b1-4)GlcNAc(b1-2)[Gal(b1-4)GlcNAc(b1-6)]Man(a1-6)]Man(b1-4)GlcNAc(b1-4)GlcNAc", "method_in_brief": "as §1"}, "[15]": {"target": "Gal(b1-4)GlcNAc(b1-2)[Gal(b1-4)GlcNAc(b1-4)]Man(a1-3)[GlcNAc(b1-4)][Gal(b1-4)GlcNAc(b1-2)[Gal(b1-4)GlcNAc(b1-6)]Man(a1-6)]Man(b1-4)GlcNAc(b1-4)[Fuc(a1-6)]GlcNAc", "method_in_brief": "as §1"}, "[16]": {"target": "Gal(b1-4)GlcNAc(b1-2)[Gal(b1-4)GlcNAc(b1-6)]Man(a1-6)[Gal(b1-4)GlcNAc(b1-2)Man(a1-3)]Man(b1-4)GlcNAc(b1-4)GlcNAc", "method_in_brief": "as §1"}, "[17]": {"target": "Gal(b1-4)GlcNAc(b1-2)[Gal(b1-4)GlcNAc(b1-6)]Man(a1-6)[Gal(b1-4)GlcNAc(b1-2)Man(a1-3)]Man(b1-4)GlcNAc(b1-4)[Fuc(a1-6)]GlcNAc", "method_in_brief": "as §1"}, "[18]": {"target": "Gal(b1-4)GlcNAc(b1-2)[Gal(b1-4)GlcNAc(b1-6)]Man(a1-6)[GlcNAc(b1-4)][Gal(b1-4)GlcNAc(b1-2)Man(a1-3)]Man(b1-4)GlcNAc(b1-4)GlcNAc", "method_in_brief": "as §1"}, "[19]": {"target": "Gal(b1-4)GlcNAc(b1-3)Gal(b1-3)GlcNAc", "method_in_brief": "as §1"}, "[20]": {"target": "Gal(b1-4)GlcNAc(b1-3)Gal(b1-4)Glc", "method_in_brief": "as §1"}, "[21]": {"target": "Gal(b1-4)GlcNAc(b1-3)Gal(b1-4)GlcNAc", "method_in_brief": "as §1"}}, "note": "The other results are listed elsewhere or left out."}
{"binder": "B1", "values": [{"measurement": "glycan array binding signal (z-score)", "setting": "Gal(b1-4)GlcNAc", "value": -0.258}, {"measurement": "glycan array binding signal (z-score)", "setting": "[1]", "value": -0.25}, {"measurement": "glycan array binding signal (z-score)", "setting": "Gal(b1-4)GlcNAc(b1-2)Man", "value": -0.274}, {"measurement": "glycan array binding signal (z-score)", "setting": "[2]", "value": 3.34}, {"measurement": "glycan array binding signal (z-score)", "setting": "[3]", "value": 1.98}, {"measurement": "glycan array binding signal (z-score)", "setting": "[4]", "value": 0.144}, {"measurement": "glycan array binding signal (z-score)", "setting": "[5]", "value": 5.25}, {"measurement": "glycan array binding signal (z-score)", "setting": "[6]", "value": 2.95}, {"measurement": "glycan array binding signal (z-score)", "setting": "[7]", "value": 2.4}, {"measurement": "glycan array binding signal (z-score)", "setting": "[8]", "value": -0.242}, {"measurement": "glycan array binding signal (z-score)", "setting": "[9]", "value": 1.09}, {"measurement": "glycan array binding signal (z-score)", "setting": "[10]", "value": 2.92}, {"measurement": "glycan array binding signal (z-score)", "setting": "[11]", "value": -0.045}, {"measurement": "glycan array binding signal (z-score)", "setting": "[12]", "value": -0.055}, {"measurement": "glycan array binding signal (z-score)", "setting": "[13]", "value": -0.245}, {"measurement": "glycan array binding signal (z-score)", "setting": "[14]", "value": -0.219}, {"measurement": "glycan array binding signal (z-score)", "setting": "[15]", "value": -0.266}, {"measurement": "glycan array binding signal (z-score)", "setting": "[16]", "value": 2.66}, {"measurement": "glycan array binding signal (z-score)", "setting": "[17]", "value": 0.618}, {"measurement": "glycan array binding signal (z-score)", "setting": "[18]", "value": 3.71}, {"measurement": "glycan array binding signal (z-score)", "setting": "[19]", "value": -0.253}, {"measurement": "glycan array binding signal (z-score)", "setting": "[20]", "value": -0.248}, {"measurement": "glycan array binding signal (z-score)", "setting": "[21]", "value": -0.253}]}
